Laboratory results as given in the supplement of paper PMC10126150.
Values marked as one replicate rest on one cluster of the flow cell; about a third of the high ones do not repeat.

Test system: ATP
Assay: switch fluorescence ratio, 500 uM ATP over buffer (Cy3 cluster intensity, sum of 5 cycles each) (fold (ratio)); higher = stronger signal-on switching upon ATP binding; sequences stand for … in TCGTCGGCAGCGTCAGATGTGTATAAGAGACAGTTTTTTTTTTTTTTTTTTTTTTTTT…TC
Settings: aptamer strand: ATP DNA aptamer (quencher-CACCTGGGGGAGTATTGCGGAGGAAGG + anchor), 100 nM annealed; ATP concentration: 500 uM; one replicate
Procedure, shortened: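 After annealing to 100 nM quencher-labelled ATP aptamer, Cy3-labelled switching-strand clusters on a modified Illumina MiSeq flow-cell were imaged in selection buffer. A second image followed after 15 min with 500 uM ATP at 22 °C, and five such buffer/ATP cycles were done, each separated by NaOH stripping and re-annealing. The fluorescence ratio, averaged per switch-domain sequence, is summed target-cycle over summed buffer-cycle Cy3 intensity per cluster, with clusters outside 100-1000 RFU excluded.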
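Also: ATP exposure 15 min at 22 °C before imaging.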

Work on CGTGTACCGA yielded a switch fluorescence ratio of 0.992.
TAGGTTGGA gave a switch fluorescence ratio of 1.02.
In the case of CTAACTTCGC, the switch fluorescence ratio is reported as 1.64.
In the case of CCACAGTCCG, the switch fluorescence ratio is reported as 1.25.
For GAAAGGCAGG, the switch fluorescence ratio was 1.03.
Sequence GTAGTATGGG has a switch fluorescence ratio of 1.03.
In the case of GACATATAGG, the switch fluorescence ratio is reported as 0.835.
For AAGATGGAGT, the switch fluorescence ratio was 1.
With TTAATAACAG the switch fluorescence ratio was 1.02.
AATATGAAGT gave a switch fluorescence ratio of 0.963.
Work on AAGCGTCATC yielded a switch fluorescence ratio of 1.01.
For TGGGCTAAT, the switch fluorescence ratio was 1.04.
For TATGTGTAGT, the switch fluorescence ratio was 0.996.
ATTATCGCAG showed a switch fluorescence ratio of 1.03.
In the case of CTTCAAACGG, the switch fluorescence ratio is reported as 1.05.
Sequence GAGCTTCGT has a switch fluorescence ratio of 1.01.
CACTCGAAGT was tested, and the switch fluorescence ratio was 1.01.
In the case of GTAAGGCATA, the switch fluorescence ratio is reported as 1.02.
GTTATATTAA was tested, and the switch fluorescence ratio was 0.943.
TAAGTATTAG gave a switch fluorescence ratio of 0.965.
Sequence CCAAGTAGCA has a switch fluorescence ratio of 1.03.
Sequence TCGGAAAAT has a switch fluorescence ratio of 1.03.
With GTGCGGGATG the switch fluorescence ratio was 1.
In the case of CGTGCTGAC, the switch fluorescence ratio is reported as 1.06.
Work on GAATGTAAGC yielded a switch fluorescence ratio of 1.01.
In the case of GCCCTCGCAC, the switch fluorescence ratio is reported as 1.31.
Work on TATTCCTCT yielded a switch fluorescence ratio of 1.01.
CTTATGTACG gave a switch fluorescence ratio of 1.
ACTCGGGGTA gave a switch fluorescence ratio of 0.99.
AGAGACTATG showed a switch fluorescence ratio of 0.949.
In the case of AAGGTGGGAA, the switch fluorescence ratio is reported as 0.964.
CCACGGCATG gave a switch fluorescence ratio of 1.29.
For TGTCACCCCG, the switch fluorescence ratio was 1.
For CGCTCTTCGG, the switch fluorescence ratio was 1.01.
TAGTCTGGGT showed a switch fluorescence ratio of 0.969.
CACTTTCTGG showed a switch fluorescence ratio of 0.982.
For TCCACTTTGT, the switch fluorescence ratio was 0.96.
Sequence CATCATTTTG has a switch fluorescence ratio of 1.03.
With TAGTTTATAT the switch fluorescence ratio was 1.07.
Sequence GACGCGATTT has a switch fluorescence ratio of 2.31.
Work on ATGAGTCATA yielded a switch fluorescence ratio of 1.02.
GCTATGTAAT gave a switch fluorescence ratio of 1.06.
CATTCAGGAA was tested, and the switch fluorescence ratio was 0.983.
For TGGCTGGACT, the switch fluorescence ratio was 1.05.
TGACTTAGCG showed a switch fluorescence ratio of 1.05.
In the case of GACCGTTATT, the switch fluorescence ratio is reported as 1.06.
Work on GAAGACTAGG yielded a switch fluorescence ratio of 1.12.
With CCGCTCTTGT the switch fluorescence ratio was 1.24.
In the case of AGGGGGTACC, the switch fluorescence ratio is reported as 1.02.
CTTGATTTAA showed a switch fluorescence ratio of 1.
For TCTCCCCAGG, the switch fluorescence ratio was 2.34.
GGATGGACGT gave a switch fluorescence ratio of 0.992.
CACGCTGTGG showed a switch fluorescence ratio of 0.946.
With TGTGGGCGGT the switch fluorescence ratio was 1.3.
AATGCCTCTC was tested, and the switch fluorescence ratio was 1.
Work on ACATGGTTGG yielded a switch fluorescence ratio of 0.95.
TGGGCGAGTT gave a switch fluorescence ratio of 0.98.
Sequence GGTGAAATGG has a switch fluorescence ratio of 1.02.
GAAACGGTCA gave a switch fluorescence ratio of 1.
GTGGGTCAAA showed a switch fluorescence ratio of 0.98.
In the case of GGCCATATGC, the switch fluorescence ratio is reported as 1.04.
For CCGTGTTGGC, the switch fluorescence ratio was 1.04.
TTAGGAAACT was tested, and the switch fluorescence ratio was 1.03.
Work on TACCTTGGGG yielded a switch fluorescence ratio of 1.01.
With ACCAGAGCCC the switch fluorescence ratio was 1.03.
In the case of CGGGTCTAGA, the switch fluorescence ratio is reported as 1.04.
AACATATAAC showed a switch fluorescence ratio of 1.
ACGCTTCAAT gave a switch fluorescence ratio of 1.1.
TAATAGGAGG gave a switch fluorescence ratio of 0.997.
Work on ATGACTGTAC yielded a switch fluorescence ratio of 1.77.
CGTATGTCGA gave a switch fluorescence ratio of 1.04.
GGCCGATCAA was tested, and the switch fluorescence ratio was 1.02.
In the case of AAGAATCGC, the switch fluorescence ratio is reported as 1.01.
Sequence TCTGATGCAA has a switch fluorescence ratio of 3.8.
TTAAGGTA was tested, and the switch fluorescence ratio was 0.973.
CTATTACTAT showed a switch fluorescence ratio of 0.967.
Sequence TAAAGCGGAA has a switch fluorescence ratio of 1.02.
Work on AGCTGTCTAC yielded a switch fluorescence ratio of 0.993.
CCCCTATGGG gave a switch fluorescence ratio of 1.01.
Sequence TATATATTAT has a switch fluorescence ratio of 0.934.
Work on CAAAAGGCGG yielded a switch fluorescence ratio of 1.01.
With GATTTCCTAG the switch fluorescence ratio was 0.951.
TCTCATAAGG showed a switch fluorescence ratio of 0.977.
GGTGGTGCCA gave a switch fluorescence ratio of 0.983.
With TACCGCTATA the switch fluorescence ratio was 2.73.
For CAATTCATGC, the switch fluorescence ratio was 1.02.
CGATCGGTGT showed a switch fluorescence ratio of 1.02.
For AGTGGCCCGG, the switch fluorescence ratio was 0.98.
Work on GCTGCTGTCA yielded a switch fluorescence ratio of 1.02.
CGAGGATCGG was tested, and the switch fluorescence ratio was 1.02.
With GCAAGCCAGC the switch fluorescence ratio was 1.02.
GGCATCCACG gave a switch fluorescence ratio of 1.05.
In the case of GGTTTTAACG, the switch fluorescence ratio is reported as 1.04.
For AGCTTTCGGA, the switch fluorescence ratio was 1.33.
With GCGTAGGATG the switch fluorescence ratio was 0.994.
Sequence CCCCTCACCA has a switch fluorescence ratio of 1.04.
Work on CTACCAAAGT yielded a switch fluorescence ratio of 1.02.
Sequence TATATCGATC has a switch fluorescence ratio of 1.02.
For GCCCTGTAAT, the switch fluorescence ratio was 1.04.
AGTTAGTC showed a switch fluorescence ratio of 1.01.
Work on CTATTCATGG yielded a switch fluorescence ratio of 0.979.
TAGACCATAG gave a switch fluorescence ratio of 0.982.
ACGTGATCCG was tested, and the switch fluorescence ratio was 1.01.
CGGTAAATTT showed a switch fluorescence ratio of 0.99.
AATAAAGTGG gave a switch fluorescence ratio of 1.
Work on GGTTTCAGGT yielded a switch fluorescence ratio of 1.05.
Sequence TGGTTGCTGG has a switch fluorescence ratio of 0.972.
Sequence CGGATTCATT has a switch fluorescence ratio of 1.
For GTTTTGGCCA, the switch fluorescence ratio was 0.971.
CTGGGCGCGA gave a switch fluorescence ratio of 1.05.
For GTCTTATTTG, the switch fluorescence ratio was 1.01.
TCAAGCAAGT gave a switch fluorescence ratio of 1.2.
TTATGTTAG gave a switch fluorescence ratio of 1.01.
GGTAGCGGCA showed a switch fluorescence ratio of 1.
ATTCCTGCTA showed a switch fluorescence ratio of 1.09.
In the case of TACATGTAC, the switch fluorescence ratio is reported as 1.2.
ATGAACATGA showed a switch fluorescence ratio of 1.04.
Work on TGATGCGCTT yielded a switch fluorescence ratio of 0.988.
For GGCTTATACG, the switch fluorescence ratio was 1.08.
TTCGGTTTTA showed a switch fluorescence ratio of 1.01.
CGATTTAGGT was tested, and the switch fluorescence ratio was 1.01.
In the case of GGTGTTGTCG, the switch fluorescence ratio is reported as 0.971.
Sequence AAGCTAGGAC has a switch fluorescence ratio of 1.16.
TCGATCATTG was tested, and the switch fluorescence ratio was 1.01.
Work on ATTGGACTCC yielded a switch fluorescence ratio of 1.02.
Work on TTAACTACTT yielded a switch fluorescence ratio of 1.03.
Work on TCTAAACAGT yielded a switch fluorescence ratio of 1.01.
In the case of GATGCCTGAA, the switch fluorescence ratio is reported as 1.01.
CGATTCTCGT gave a switch fluorescence ratio of 0.987.
Work on TATTTCATCA yielded a switch fluorescence ratio of 0.975.
Work on GAGTGTTCTC yielded a switch fluorescence ratio of 0.958.
AGACATTTGG was tested, and the switch fluorescence ratio was 0.967.
TGTTCCTTGG showed a switch fluorescence ratio of 0.962.
TTTGGTGC gave a switch fluorescence ratio of 1.06.
Sequence TGGCCACCGT has a switch fluorescence ratio of 0.999.
For GTTCAAAGTG, the switch fluorescence ratio was 0.979.
TGCAGTAGTA gave a switch fluorescence ratio of 0.955.
Work on ACACGGCTAA yielded a switch fluorescence ratio of 0.987.
For ACGGTCTCAC, the switch fluorescence ratio was 1.09.
Work on TCAGTCCTCG yielded a switch fluorescence ratio of 0.955.
Sequence AGTCCAGATG has a switch fluorescence ratio of 1.05.
Sequence TTGTTTTA has a switch fluorescence ratio of 0.981.
In the case of CTCTGGCGTC, the switch fluorescence ratio is reported as 1.02.
TCAGCCTCCC was tested, and the switch fluorescence ratio was 1.58.
GCAGTAAGTC showed a switch fluorescence ratio of 1.04.
Sequence TGATCAACGT has a switch fluorescence ratio of 0.992.
TTCGGTTGTC gave a switch fluorescence ratio of 1.17.
In the case of TCAGAACACT, the switch fluorescence ratio is reported as 1.07.
TAGATGGTCA gave a switch fluorescence ratio of 1.04.
In the case of GAGGCCTGTT, the switch fluorescence ratio is reported as 1.5.
TATAACTCTT gave a switch fluorescence ratio of 1.05.
For ACAAGTAGGG, the switch fluorescence ratio was 1.01.
Sequence AATTCGTTTG has a switch fluorescence ratio of 0.964.
